# Source: PMC4336329 (PLoS ONE, 2015)
# Hit rate of the full screen: of about 310,000 compounds, about 14,000 (4.5%) showed an effect of 50% or more. Effects have a minus sign here. This is one part of the list.
# Biological target: human ether-à-go-go-related gene (hERG) potassium channel (human, UniProt Q12809)
# Test: primary screen, population patch clamp on CHO cells stably expressing hERG
# 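Note: peak tail current of the secondary pulse compared with the same well before compound.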
# human ether-à-go-go-related gene (hERG) potassium channel, sequence (Q12809 whole entry, looked up): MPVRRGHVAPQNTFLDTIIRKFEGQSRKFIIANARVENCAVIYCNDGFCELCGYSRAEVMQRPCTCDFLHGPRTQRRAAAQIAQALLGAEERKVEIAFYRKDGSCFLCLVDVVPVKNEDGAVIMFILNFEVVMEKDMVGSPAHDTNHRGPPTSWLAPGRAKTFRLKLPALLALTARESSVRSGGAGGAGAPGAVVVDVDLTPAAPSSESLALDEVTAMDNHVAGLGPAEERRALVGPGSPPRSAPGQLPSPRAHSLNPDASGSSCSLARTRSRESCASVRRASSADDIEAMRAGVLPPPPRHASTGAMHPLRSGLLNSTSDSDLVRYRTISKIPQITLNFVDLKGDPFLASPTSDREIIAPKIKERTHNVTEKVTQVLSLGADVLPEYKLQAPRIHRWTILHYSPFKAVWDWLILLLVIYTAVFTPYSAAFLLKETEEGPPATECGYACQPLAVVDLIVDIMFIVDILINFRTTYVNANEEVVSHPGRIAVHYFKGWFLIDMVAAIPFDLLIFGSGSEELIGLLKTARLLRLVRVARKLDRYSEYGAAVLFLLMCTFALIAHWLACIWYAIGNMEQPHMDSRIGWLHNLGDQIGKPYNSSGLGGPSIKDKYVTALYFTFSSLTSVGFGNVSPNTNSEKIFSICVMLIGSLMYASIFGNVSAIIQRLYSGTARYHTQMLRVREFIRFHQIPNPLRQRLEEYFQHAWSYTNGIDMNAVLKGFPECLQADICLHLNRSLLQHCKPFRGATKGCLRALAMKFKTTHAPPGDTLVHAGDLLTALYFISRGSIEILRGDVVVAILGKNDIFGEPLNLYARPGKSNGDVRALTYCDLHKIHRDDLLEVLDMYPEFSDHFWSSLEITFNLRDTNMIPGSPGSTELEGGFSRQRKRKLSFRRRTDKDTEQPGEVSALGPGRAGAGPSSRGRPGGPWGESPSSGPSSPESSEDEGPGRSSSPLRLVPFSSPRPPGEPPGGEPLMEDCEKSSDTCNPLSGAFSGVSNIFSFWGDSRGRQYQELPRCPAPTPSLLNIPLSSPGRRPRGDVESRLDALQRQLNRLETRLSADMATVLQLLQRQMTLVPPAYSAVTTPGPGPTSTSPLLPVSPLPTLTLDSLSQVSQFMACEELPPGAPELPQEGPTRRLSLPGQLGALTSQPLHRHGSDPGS
row,Compound,"hERG current change (%, negative = inhibition) at 10uM"
1,COc1ccc(Nc2nc(NCc3ccco3)nc(N/N=C/c3ccccc3)n2)cc1,-0.0402%
2,CCOC(=O)c1c(C)nc2sc(C(=O)Nc3ccc(C(C)=O)cc3)c(N)c2c1-c1ccc(OC)cc1,4.74%
3,Cl.c1ccc(-c2nc(NCCCn3ccnc3)c3oc4ccccc4c3n2)cc1,-4.89%
4,CCCSCC(=O)Nc1ncc2c(n1)-c1ccccc1CC2,-13.5%
5,CCC(C(=O)NC1CCCC1)N(C(=O)Cn1nnc(-c2ccc(C)o2)n1)C(C)(C)C (stereo not drawn),-19.6%
6,O=C1CCC(C(=O)OCc2cc(Cl)ccc2OC(F)F)N1 (stereo not drawn),0.725%
7,COc1cc(CN2CC(=O)N(c3cc(Cl)ccc3C)C2=S)cc(OC)c1OC,20.7%
8,COc1ccc(-n2c(SCC(=O)Nc3ccc4c(c3)OCO4)nnc2C(C)N2CCCCC2)cc1 (stereo not drawn),-43.5%
9,COc1ccc(NC2CCCN(C(=O)c3ccc(C(C)=O)s3)C2)cc1 (stereo not drawn),16.1%
10,CCOc1ccccc1NC(=O)NC1CCCCCCC1,13.6%
11,N#CCCN(C(=O)COc1ccc(C#N)cc1)c1ccc(F)cc1,-27.7%
12,CN1CCN(C2=NC(=O)/C(=C/c3ccccc3OS(=O)(=O)c3ccccc3)S2)CC1,-76.1%
13,COc1cc(OC)c(N2CC(C(=O)Nc3cc(Cl)ccc3N3CCOCC3)CC2=O)cc1Cl (stereo not drawn),-21.9%
14,O=C(O)C1=C[C@H](c2csc3ccccc23)C[C@H](OCCCCO)O1,8.62%
15,Cn1cccc1-c1nc2ccccc2[nH]1,-5.21%
16,CCCC[n+]1c2ccccc2cc2ccccc21.[I-],-32.9%
17,Cc1ccc(C)c(NS(=O)(=O)c2cc(C(=O)N3CCc4ccccc4C3)ccc2Cl)c1,8.24%
18,O=C(N/N=C/c1ccc(O)cc1)c1cc(C2CC2)[nH]n1,-4.89%
19,Cn1nc(C(=O)Nc2cccc(Cl)c2)cc1C(=O)Nc1cccc(Cl)c1,15.8%
20,O=C1[C@@H]2C(c3cccnc3)=NO[C@@H]2C(=O)N1c1ccc2ccccc2c1,21.1%
21,CC(C)Cc1nnc(NC(=O)CCC(=O)N2CCN(c3ccccc3)CC2)s1,13.2%
22,O=C(NC1CCN(Cc2ccccc2)CC1)c1ccc(Oc2cc(Cl)cc(Cl)c2)o1,-6.95%

row,Compound,"hERG current change (%, negative = inhibition) at 10uM"
1,CC1(C)CC(=O)C2=C(C1)N1C(=C(C#N)C2c2ccc(Cl)cc2)N=C(N)c2ccccc21 (stereo not drawn),-7.52%
2,CC(C)NC(=O)C(c1ccc(F)cc1)N(C(=O)CCC(=O)Nc1ccccn1)c1cccc(F)c1 (stereo not drawn),6.37%
3,O=C(C[n+]1cccc(CNC(=O)c2ccc(OC(F)F)cc2)c1)Nc1ccccc1Cl.[Cl-],-10.3%
4,CCCCNC(=O)CCC(=O)Nc1ccc2nc(N3CCC(C)CC3)cc(C)c2c1,-27.9%
5,C=CCNC(=O)C(=O)NN=C1CCN(C)CC1,0.576%
6,CC(=O)Nc1ccc(N=c2cc([N+](=O)[O-])cc(Cl)n2O)cc1,5.97%
7,O=C(CN(Cc1ccco1)C(=O)CCC(=O)Nc1ccccn1)NCCc1ccccc1,-6.94%
8,COc1ccc(NC(=O)c2ccc3c(=O)n(-c4ccc(OC)cc4OC)c(=S)[nH]c3c2)c(OC)c1,0.523%
9,C#CCSc1n[nH]c(-c2ccco2)n1,16.1%
10,Cc1ccc(N2C(=O)c3ccc(N)cc3C2=O)cc1,13.2%
11,O=c1nccc(SCc2ccc(Cl)cc2Cl)[nH]1,12.7%
12,CC(C)CNc1nc2c(c(=O)n(C)c(=O)n2C)n1Cc1cccc(Br)c1,0.0145%
13,NC(=O)C1CCN(C(=S)NCCc2ccccc2)CC1,19.7%
14,O=C(CSc1nnc(-c2ccncc2)n1CCc1ccccc1)NCc1ccccc1,-46.1%
15,CC(C)(C)c1csc(NC(=O)C2COc3ccccc3O2)n1 (stereo not drawn),-47.6%
16,Cc1ccc(C(=O)O)cc1-c1ccc(/C=C2/NC(=O)N(c3ccccc3)C2=O)o1,4.44%
17,COc1ccc(NC(=O)C2CC(=O)N(Cc3ccco3)C2)cc1Cl (stereo not drawn),-4.14%
18,COc1cc(NC(=S)NCCc2c[nH]c3ccccc23)c(OC)cc1Cl,10.1%
19,Cc1cc(C)c(/C=N/NC(=O)c2nnn(-c3nonc3N)c2CN2CCC(C)CC2)c(C)c1,18.8%
20,CN1CCN(C(=O)C2=C[C@@H](c3ccc(C(F)(F)F)cc3)C[C@@H](OCCCCO)O2)CC1,-20.2%
21,CC(C)C(=O)Nc1c2c(nc3c1CCC3)CCCC2,5.23%
22,O=C(c1ccc(-n2cnnn2)cc1)N1CCCCC1,-24.1%

row,Compound,"hERG current change (%, negative = inhibition) at 10uM"
1,COc1cccc2sc(NNC(=O)C3=COCCO3)nc12,1.61%
2,CCC1Oc2ccc(C)cc2N(CC(=O)NCCc2ccc(OC)c(OC)c2)C1=O (stereo not drawn),-14.6%
3,CCN(CC)S(=O)(=O)c1ccc(N2CCOCC2)c(NC(=S)NC(=O)c2ccco2)c1,-66.5%
4,Cc1n[nH]c(=O)nc1NCCc1ccccc1,34.4%
5,Cc1ccccc1-c1nsc(SCC(=O)c2ccc(Cl)cc2)n1,7.5%
6,COc1cc2[nH]c(C(=O)N(C)Cc3ccccc3)cc2c(OC)c1OC,-28.6%
7,Cc1ccc(NC(=S)N(C)Cc2cn(C)c3ccccc23)cc1,-4.74%
8,Cn1c(=O)c2c(C(=O)O)cc(-c3ccccc3)nc2n(Cc2ccccc2)c1=O,20.5%
9,O=C(NCc1ccc(Cl)cc1)c1ccncc1,-1.32%
10,CCC(C)NC(=O)C1CCN(S(=O)(=O)N2CCC3(CC2)OCCO3)CC1 (stereo not drawn),37.2%
11,O=C(Cc1csc(N2CCOCC2)n1)N/N=C/c1cccc(O)c1,-5.11%
12,C/C(CC(=O)NCCN1CCOCC1)=N\NC(=O)c1ccncc1,14%
13,Cc1cc(S(=O)(=O)Nc2cccc([N+](=O)[O-])c2)c(C)s1,2.03%
14,CC1CC(C)CN(S(=O)(=O)N2CCC(C(=O)NCCC3=CCCCC3)CC2)C1 (stereo not drawn),7.18%
15,COc1ccc(CN(C)C(=O)Cc2ccc(OC)c(S(=O)(=O)N3CCOCC3)c2)cc1OC,-3.41%
16,C/C(=N\N1CCN(C)CC1)c1ccc(OC(F)F)cc1,9.82%
17,COc1cccc(/C=C/c2ccc3cccc(O)c3n2)c1OC,21.8%
18,C=CCN1C(=O)CSC1=Nc1cccc(O)c1,-4.23%
19,O=C(OCC(=O)N1CCCC1)c1cc(Br)ccc1Cl,12.7%
20,Nc1ccc(O)cc1C(=O)OCC(=O)C12CC3CC(CC(C3)C1)C2,-5.05%
21,CCCCCCc1ccc(N2C[C@H](CCCCC)[C@@H](CC(=O)NCc3ccccc3)C2=O)cc1,-1.8%
22,COc1ccc(C(=O)NC2CCN(CC(=O)NCc3ccccc3)CC2)cc1,-24.4%

row,Compound,"hERG current change (%, negative = inhibition) at 10uM"
1,CCOC(=O)C1CCN(Cc2cc(Cl)c3ccccc3c2O)CC1,10.2%
2,Cc1ccc(NC2=NCC(=O)N2C2CCCC2)cc1.Cl,14.7%
3,COc1ccc(C(O)(CCC(C)C)C(CN2CCOCC2)c2ccc(Cl)cc2)cc1.Cl (stereo not drawn),0.459%
4,Cc1ccc(OCC(=O)Nc2ccncc2)cc1,2.13%
5,CCOc1cc(C(=S)N2CCOCC2)ccc1O,9.47%
6,O=C(Nc1ccn(Cc2c(F)c(F)c(F)c(F)c2F)n1)c1ccc(COc2ccccc2Cl)cc1,11.7%
7,CCC(C)c1ccc(O)c(/C=N/O)c1 (stereo not drawn),12.2%
8,CC12CC(NC(=O)N1c1cccc(C(=O)N3CCN(c4ccccc4F)CC3)c1)c1ccccc1O2 (stereo not drawn),-6.74%
9,O=C(CN1C2CCCC1CC(NC(=O)c1ccco1)C2)Nc1ccccc1 (stereo not drawn),-45.2%
10,Cc1ccc(C(=O)Nc2ncccc2O)cc1S(=O)(=O)N1CCCCC1,-14.3%
11,COc1c(C(=O)Nc2ccc(CN3CCOCC3)cc2)cc2ccccc2c1Br,4.81%
12,CCC(=O)c1ccc(OCC(=O)Nc2ccccc2C(=O)NC2CC2)cc1,-6.53%
13,COc1ccc(CCN(C)C(=O)CSc2nnc(-c3ccco3)o2)cc1OC,-21.3%
14,CC1Cc2ccccc2N1C(=O)COC(=O)c1ccc(N(C)C)cc1 (stereo not drawn),13.4%
15,Cc1cc(NC(=O)C23CC4CC(CC(C4)C2)C3)n[nH]1,-0.917%
16,COc1cc(/C=N/n2cnc3scc(-c4cccs4)c3c2=O)cc(OC)c1OC,-9.89%
17,O=S(=O)(NCC1CCCO1)c1cnc(Cl)c(Cl)c1 (stereo not drawn),-2.72%
18,CC1CCC2C(=O)N(c3ccc(S(=O)(=O)c4ccccc4)cc3)C(=O)C2C1 (stereo not drawn),9.01%
19,Cc1nc(-c2noc(-c3ccc(Cl)cc3)n2)c(C(F)(F)F)o1,28.2%
20,CC(=O)C1=C(NC(=O)c2ccc(C(F)(F)F)cc2)C[C@@H]2[C@H]1C2(C)C,5.78%
21,O=C(N/N=C/c1ccccc1F)c1cccc2ccccc12,9.79%
